A compilation of properties of binary mixtures (doi:10.1021/acs.jced.9b01018)
Some of these densities may be calculated back from excess volumes.

Assay: xn = mol fraction of the nth substance listed
Settings: 100 kPa

CC(=O)[O-].CCCC[n+]1ccn(C)c1 + O
mass density [kg/m3]
Settings | x2 = 0.012 | x2 = 0.0152 | x2 = 0.0163
273.15 K | 1066.9 | – | 1066.7
274.15 K | – | 1066.4 | –
283.15 K | 1060.6 | 1060.8 | 1060.4
293.15 K | 1054.4 | 1054.5 | –
298.15 K | 1051.2 | 1051.1 | 1051.1
303.15 K | 1048.1 | 1047.8 | 1047.9
313.15 K | 1042 | 1041.6 | 1041.9
323.15 K | 1036 | 1035.8 | 1035.9
333.15 K | – | 1030.1 | –
343.15 K | 1024.1 | 1024.2 | 1023.9
353.15 K | 1018.2 | – | 1018
363.15 K | 1012.3 | – | –
